Laboratory results from PubChem BioAssay AID1508624 (National Center for Advancing Translational Sciences (NCATS), 2021).
In all, about 48,000 compounds went through this assay and about 120 (0.25%) were called active. Roughly 4% stayed inconclusive and do not appear here. The call rests on the fitted dose curve; in most records, active means well fitted activation curve with a large enough effect; inconclusive means small, poorly fitted or top-dose-only effect, or another doubt; inactive means no such curve, though single readings can be large or run the other way. Some of the results follow.

Assay: Primary qHTS for Identification of Small Molecule Activators of Huntingtin-Antisense Promoter Activity; further: nearly all actives have a fitted effect of over 55% in size
Settings: HEK293 HTT-AS promoter firefly luciferase reporter, 24 h; series mostly up to 57.5 µM; activity change, positive = activation: at the top concentration
In short: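 HEK293 luciferase promoter-reporter cells (2,500/well) plated 24 h, then compounds added at up to 57.5 uM final for 24 h at 37 °C. Firefly luminescence by Dual-Glo, normalized to vehicle (0%) and zero RLU (-100%).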

Activity change, positive = activation, inactive:
Cc1cccc(C)c1NC(=O)C1CCCN1S(=O)(=O)c1cccc2nsnc12 (stereo not given) 3.07% [at 11.5 µM, percent change from vehicle, -100% = no light]
COc1ccc(NC(=O)Cn2nnc(-c3nc(-c4ccncc4)no3)c2N)cc1OC 0.248%
Cc1oc(-c2ccc(Cl)cc2)nc1CSc1nc2ncccc2[nH]1 -24.2%
O=C(Nc1ccc2oc(-c3ccncc3)nc2c1)c1ccccc1Cl 6.92% [at 11.5 µM, percent change from vehicle, -100% = no light]
CCc1ccccc1Nc1nn2c(=O)c3ccc(C(=O)NCCCOC(C)C)cc3nc2s1 -20.9%
COc1cccc(NC(=O)c2ccc(-c3nc(COc4ccccc4)c(C)o3)cc2)c1 -14%
O=C(OCc1cc(=O)n2nc(C3CCCCC3)sc2n1)c1ccc(F)cc1 -2.17%
CCOc1ccc(NC(=O)c2sc3nc4c(c(-c5ccc(OC)cc5)c3c2N)C(=O)CC(C)(C)C4)cc1 0.147%
CCOc1ccc(-n2cc(-c3ccccc3)c3c(N4CCN(c5ccccc5OC)CC4)ncnc32)cc1 -4.95%
COC(=O)c1c(NC(=O)/C(C#N)=C/c2ccccc2)sc2c1CCC2 -4.87%
COc1ccc(-c2noc(-c3cccnc3N3CCN(c4ccc(OC)cc4)CC3)n2)cc1 -13.3%
O=C(Nc1cccc(Cl)c1)c1ccc2c(c1)CCN2S(=O)(=O)c1ccccc1 -6.13%
CCCCN(CC)C(=O)CSc1c2c(nc3ccc(Cl)cc13)CCCC2 -31.4%
CCOCCCNC(=O)CN1C(=O)COc2ccc(S(=O)(=O)N3CCCC3)cc21 -13%
CCOC(=O)c1c(C)[nH]c(C)c1S(=O)(=O)N1CCCC(C(=O)NCc2ccc(Cl)cc2)C1 (stereo not given) -11.5%
COc1ccccc1Nc1cc(C(=O)NC2CCC(C)CC2)c2ccccc2n1 (stereo not given) -13.8%
CCn1c(CN2CCC(C)CC2)nc2cc(NC(=O)COc3ccc(Cl)c(C)c3)ccc21 -41.4%
COc1cc(OC)c(NC(=O)CCc2c(C)nc3ncnn3c2C)cc1Cl -7.78%
COc1ccc(-c2nc(CSCC(=O)NCCc3ccccc3)c(C)o2)cc1 -26.2%
N#Cc1c(C2CCNCC2)cc(-c2c(O)cccc2OCC2CC2)nc1N 8.94%
CCc1ccc(-n2c(SCc3ccccc3Cl)nc3[nH]ncc3c2=O)cc1 -5.03% [at 11.5 µM, percent change from vehicle, -100% = no light]
COc1cccc(N2CCN(C(=O)c3cc4cc5cc(C)ccc5nc4s3)CC2)c1 8.5%
CCC(=O)N1c2ccccc2CC1C(=O)NCc1ccccc1Cl (stereo not given) -0.452%
Cc1cccc(NC(=O)CCn2cnnn2)c1C 1.04%
Cc1cccc(NC(=O)Cn2cc(C(=O)c3ccco3)c3ccccc32)c1 -16.1%
Cc1ccc(CNC(=O)c2ccc(Cn3c(=O)c4ccccc4n(CC(=O)Nc4ccc(C)cc4)c3=O)cc2)cc1 -12.2%
O=C(NC1(C(F)(F)F)C(=O)Nc2c1c(=O)[nH]c(=O)n2-c1ccc(Cl)cc1)c1ccccc1F (stereo not given) -5.14%
COc1ccc(Cn2cc(S(=O)(=O)c3ccc(Cl)cc3)c(=O)c3cc4c(cc32)OCO4)cc1 -8.36%
CC(C)CNC(=O)N1[C@H](c2cccs2)[C@@H](C)C(=O)[C@@H](C)[C@@H]1c1cccs1 -16.4%
CCn1c(=N)n(CCOc2ccc(Br)cc2)c2ccccc21 -32.7%
COc1ccc(C)cc1NS(=O)(=O)c1c(C(=O)N2CCCCCC2)c(C)n(C)c1C -12.1%
COc1ccc(CC(=O)NCCc2csc(-c3cccc(C)c3)n2)cc1 -24.6%
CC(C)OCCCNC(=O)Cn1ccc2cc(S(=O)(=O)N3CCCCCC3)ccc21 -21.2%
Cc1oc(-c2ccccc2Cl)nc1Cn1c(SCc2cccc(F)c2)nc2cccnc21 -19.7%
CC(=O)c1cccc(NC(=O)CC(c2ccc(C)cc2)N2Cc3ccccc3C2=O)c1 (stereo not given) -29.2%
Cc1nc(-c2ccccc2)sc1-c1ccc(SCC(=O)NCc2ccc(Cl)cc2)nn1 5.81%
CCN(C(=O)Nc1cn(CC(C)C)c(=O)c2ccccc12)c1cc(C)ccc1C -17.3%
Cc1ccc2nc(Nc3ccc(C)c(F)c3)c3nncn3c2c1 1.27%
Cc1ccc(CNC(=O)CCn2cnc3ccccc3c2=O)cc1 4.59%
Cc1c(Cl)cccc1NC(=O)C1CCN(c2ncnc3c2nc2n3CCCCC2)CC1 -17%
CCn1nc(C)c(CCN(C)C(=O)Nc2cc(OC)c(OC)c(OC)c2)c1C 0.688%
O=C(CS(=O)Cc1ccco1)NCC=CCOc1cc(CN2CCCCC2)ccn1 (stereo not given) -51.5%
Cc1ccc(N2CC(NC(=O)c3ccc(S(=O)(=O)N4CCOCC4)cc3)CC2=O)cc1 (stereo not given) -14.9%
CCOC(=O)c1cnn(-c2ccc(C(=O)Nc3cccc(C(C)=O)c3)cc2)c1N 12%
COc1ccc2cc(C(=O)NCc3ccc4c(c3)CCN4C(=O)c3ccc(F)cc3)[nH]c2c1 -2.57%
O=C(COCc1cc(-c2cccs2)on1)N1CCN(c2cccc(Cl)c2)CC1 -24.7%
O=C(CCn1c(=O)c2cccn2c2cccnc21)N1CCN(c2ccccc2F)CC1 -10.6%
Fc1cccc(-c2nnn3c2nc(NCCc2ccccc2)c2ccccc23)c1 10.9%
O=C(NC1CCCC1)c1ccc2c(c1)N(Cc1ccccc1)C(=O)c1ccccc1S2 -24%
CC1CCN(c2nc3ccc(C(=O)NCc4ccccc4Cl)cc3s2)CC1 -80.6%
CC(C)(C(=O)c1cccnc1)c1cccnc1 -4.31%
COC(=O)Nc1ccc(-c2nc(N3CCOCC3)c3cnn(C4CCN(Cc5cccnc5)CC4)c3n2)cc1 -29.1%
Cc1ccc(F)cc1NC(=O)Cn1c(C)cc(C)c(C#N)c1=O -3.81%
COc1ccc(N2CCN(Cc3nc4c(c(=O)[nH]c(=O)n4C)n3CC(C)C)CC2)cc1 -10.6%
O=C(NCc1cccc(Br)c1)c1ccc(NC(=O)N2CCCCc3ccccc32)cc1 -18.3%
C[C@H](O)[C@@H]1C(=O)N2C(C(=O)O)=C(S[C@@H]3CN[C@H](CNS(N)(=O)=O)C3)[C@@H](C)[C@@H]12 -4.44%
Cc1ccc(S(=O)(=O)c2nnn3c2nc(NCCc2ccccc2)c2sccc23)cc1 -40.9%
Cc1ccc(-n2nc3c(=O)n(CC(=O)NCCC(C)C)nc(C)c3c2C)cc1 -14.6%
CC(CNC(=O)c1nnc(Cc2ccc(F)cc2)o1)c1ccccc1 (stereo not given) -26.3%
Nc1ncn([C@H]2C[C@H](O)[C@@H](CO)O2)c(=O)n1
COc1cc2ncc(C(=O)c3ccc(C)cc3)c(N3CCCCC3)c2cc1OC -36%
COCCCNC(=O)Cn1c(=O)nc(-c2ccccc2)c2ccccc21 0.413%
NCCCCNCCCN 14.5%
CCCCC12CN3CC(C)(CN(C1)C3c1ccc(O)c(OC)c1)C2=O (stereo not given) 0.462%
COc1ccc(Cn2cc(C(=O)c3ccc(C)c(C)c3)c(=O)c3ccccc32)cc1 -20.2%
CCOc1ccc(CCNC(=O)c2cc(C)nc3c2c(C)nn3-c2cccc(F)c2)cc1 -23.7%
O=C(Cn1cc(S(=O)(=O)Cc2cccc(Cl)c2)c2ccccc21)Nc1ccccc1Cl -26.1%
C[C@@H](c1ncncc1F)C(O)(Cn1cncn1)c1ccc(F)cc1F (stereo not given in full) -3.69%
Cc1cccc(NC(=O)COc2ccc(-c3nn(C)c(=O)c4ccccc34)cc2)c1 -30.8%
COC(=O)c1ccccc1NC(=O)CSc1nc(=O)cc(N)n1-c1ccccc1 -5.86%
C[C@@H]1O[C@@H](O[C@H]2CC[C@@]3(C)[C@H](CC[C@@H]4[C@H]3C[C@@H](O)[C@]3(C)[C@@H](C5=CC(=O)OC5)CC[C@]43O)C2)C[C@H](O)[C@@H]1O[C@H]1C[C@H](O)[C@H](O[C@H]2C[C@H](O)[C@@H](O)[C@@H](C)O2)[C@H](C)O1 (stereo in doubt) -51.3% [at 116 µM, percent change from vehicle, -100% = no light]
CCOc1ccc(NC(=O)CSc2nnc(-c3ccc(OCC)cc3)o2)cc1 -79.8%
Cc1ccc(NC(=O)Cn2c(=O)n(Cc3nc(-c4ccccc4)no3)c(=O)c3ccccc32)cc1C -17.5%
Cc1ccc(CNC(=O)c2c(-c3ccccc3Cl)noc2C)o1 -14.6%
Cc1coc2cc3oc(=O)c(CC(=O)NCc4cccc(Cl)c4)c(C)c3cc12 -27.4%
COc1ccc(CNC(=O)Nc2ccc3c(c2)N(C)C(=O)c2ccccc2S3)cc1OC -28.8%
COc1cc(OC)c(NC(=O)CN2CCCN(Cc3ccccc3C)S2(=O)=O)cc1Cl -18.5%
CN1CC(=O)NC1=N 0.545%
Cc1ccccc1C(=O)Nc1c(C)nc2ccccn2c1=O -4.87%
Cn1c(=O)oc2cc(S(=O)(=O)N3CCCC(C(=O)NCCc4ccccc4)C3)ccc21 (stereo not given) -21.6%
Cc1ccc(CNC(=O)c2c[nH]n3c(=O)c(Cc4ccc(Cl)cc4)c(C)nc23)cc1 -24.1%
Cc1c(C)c2c(c(C)c1OC(=O)CCC(=O)OCCO)CC[C@@](C)(CCC[C@H](C)CCC[C@H](C)CCCC(C)C)O2 -24.9%
O=C(NCCc1ccccc1)c1nn(-c2ccc(F)cc2)nc1CO -9.89%
Cc1cccc(CNC(=O)c2ccc3nc(Cc4ccccc4)oc3c2)c1 4.68%
CCOc1ccc(C2c3[nH]c4ccccc4c3CCN2C(=O)CSCc2ccc(F)cc2)cc1 (stereo not given) -32%
Cc1cc(S(=O)(=O)NCC(c2ccco2)S(=O)(=O)c2cccs2)ccc1F (stereo not given) -4.33%
O=C(Cc1ccc(-c2ccc(OCCN3CCOCC3)cc2)cn1)NCc1ccccc1 -33%
Cc1cccc(NC(=O)CS(=O)(=O)c2cccc3nsnc23)c1 -5.53%
Cc1ccc(CCNC(=O)c2c3c(nc4ccccc24)C(=O)N(C2CCCCC2)C3)cc1 -8.01%
Cc1cc(C)c2c(=O)cc(C(=O)Nc3c(C)n(C)n(-c4ccccc4)c3=O)oc2c1 1.28% [at 11.5 µM, percent change from vehicle, -100% = no light]
